In PubChem BioAssay AID1460 (National Center for Advancing Translational Sciences (NCATS), 2008):
Among all 270,000 compounds or so, about 5,800 (2.1%) were called active. The shares of active, inactive and inconclusive entries below differ from those in the screen. The call rests on the fitted dose curve; in most records, active means well fitted inhibition curve with a large enough effect; inconclusive means small, poorly fitted or top-dose-only effect; inactive means flat fitted curve, though single readings scatter. Where the call is inconclusive, the potency comes from a doubtful curve fit.
Further: nearly all actives have a fitted effect of over 55% in size.
On the % scale 0 is the no-effect control and ±100 the full control effect; potency means the concentration at half of the fitted maximal effect; tags describe the fitted curve by direction and shape.

The compounds below were run against Microtubule-associated protein tau (Homo sapiens) (UniProt P10636) (assay: qHTS for Inhibitors of Tau Fibril Formation, Thioflavin T Binding). Settings: recombinant tau K18 P301L (four-repeat tau fragment), heparin-induced fibrillization, ThT fluorescence; series mostly up to 57.4 µM; activity, negative = inhibition: at the top concentration.
Chain of UniProt P10636 (P10636 whole entry, looked up, the tested form may be a part): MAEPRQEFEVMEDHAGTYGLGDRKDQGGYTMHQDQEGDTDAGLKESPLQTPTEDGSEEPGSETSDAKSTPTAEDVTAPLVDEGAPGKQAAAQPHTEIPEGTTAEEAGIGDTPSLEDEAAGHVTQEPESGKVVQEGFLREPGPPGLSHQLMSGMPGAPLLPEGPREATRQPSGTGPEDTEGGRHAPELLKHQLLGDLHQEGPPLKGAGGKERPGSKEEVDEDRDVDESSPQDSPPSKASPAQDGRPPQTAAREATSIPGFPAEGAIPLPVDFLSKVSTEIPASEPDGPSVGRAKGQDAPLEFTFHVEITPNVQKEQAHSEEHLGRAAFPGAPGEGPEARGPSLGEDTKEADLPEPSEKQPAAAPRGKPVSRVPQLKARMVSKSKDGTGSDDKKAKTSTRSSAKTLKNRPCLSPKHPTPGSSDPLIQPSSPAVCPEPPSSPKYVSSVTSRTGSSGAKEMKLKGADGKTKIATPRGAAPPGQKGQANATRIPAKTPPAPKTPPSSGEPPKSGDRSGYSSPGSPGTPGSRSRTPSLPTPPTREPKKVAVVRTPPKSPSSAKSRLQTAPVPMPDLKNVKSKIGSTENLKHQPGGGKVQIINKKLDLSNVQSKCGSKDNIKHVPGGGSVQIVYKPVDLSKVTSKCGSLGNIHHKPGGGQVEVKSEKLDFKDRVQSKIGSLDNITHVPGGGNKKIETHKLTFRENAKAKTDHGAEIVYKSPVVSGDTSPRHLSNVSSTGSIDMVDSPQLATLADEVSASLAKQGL
Method in brief: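 Aggregation was driven by heparin (20 uM final) acting on recombinant tau […] bearing P301L in 100 mM sodium acetate pH 7; fibrils were detected with Thioflavin T.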
`CCCCc1cc2c(cn1)=C(OC(=O)c1cnc3ccccc3n1)C(C)(OC(=O)CC)C(=O)C=2` (stereo not drawn) was tested, and the Potency was inconclusive: 17.8 µM [inhibitor, partial curve]. In the case of `Cc1cc(C)c(C#N)c(SCC(=O)CC(=O)OC(C)C)n1`, the “activity, negative = inhibition” value was inactive: -13.8%. For `COc1ccccc1N1CCN(CCCNC(=O)c2nnc(Cc3ccc(F)cc3Cl)o2)CC1`, the “activity, negative = inhibition” value was inactive: -5.54%. `COc1cccc(/C=N/N2C(=O)NC3(CCCCC3)C2=O)c1O` was tested, and the “activity, negative = inhibition” value was inactive: -5.56%. With `CCN(CCO)c1nc(SC)nc2c1sc1nc(-c3ccco3)c3c(c12)CCC3` the Potency was active: 25.1 µM. For `COc1ccc(OC)c(Nc2cc(C(=O)NCCCN3CCOCC3)c3ccccc3n2)c1`, the “activity, negative = inhibition” value was inactive: -17.4%. `CCOC(=O)c1c(NC(=O)C2CCCO2)sc2c1CCC2` (stereo not drawn) was tested, and the Potency was inconclusive: 11.2 µM [inhibitor, partial curve, poor fit]. With `CN(C)S(=O)(=O)N1CCC(Oc2ccc(C(=O)NCC(C)(C)CO)cc2)CC1` the Potency was inconclusive: 25.1 µM [inhibitor, partial curve, poor fit]. For `Cc1ccccc1Nc1nc(NCc2ccco2)c2ccccc2n1`, the Potency was inconclusive: 39.8 µM [activator, single point]. In the case of `Cc1ccc(/C=C/C(=O)OCc2nc(N)nc(Nc3ccccc3C)n2)o1`, the “activity, negative = inhibition” value was inactive: -14.6%. `COc1ccc(CCNc2nc(SCc3ccccc3F)nc3ccccc23)cc1OC` was tested, and the “activity, negative = inhibition” value was inactive: 0.696%. In the case of `COC(=O)c1sc(N2C(=O)c3oc4ccc(C)cc4c(=O)c3C2c2ccc(O)c(OC)c2)nc1C` (stereo not drawn), the Potency was inconclusive: 0.447 µM [inhibitor, full curve]. With `CCC(C)(C)C1CCC(=NNC(=S)Nc2cccnc2)CC1` (stereo not drawn) the Potency was inconclusive: 14.1 µM [inhibitor, partial curve]. With `CN(C)CCOc1cc(Cl)cc(Cl)c1` the “activity, negative = inhibition” value was inactive: 1.14%. `COc1cc(Br)c(Br)c(Br)c1N` was tested, and the Potency was inconclusive: 28.2 µM [inhibitor, single point]. For `O=C(Oc1ccccc1)c1c(Cl)cccc1P(=O)(O)O`, the Potency was inconclusive: 8.91 µM [inhibitor, single point]. `O=C(CSc1ccc(Cl)cc1)NN=C1CCCCCC1` was tested, and the “activity, negative = inhibition” value was inactive: -3.18%. `CC(C)CCNC(=O)c1ccc2nc(CCc3ccccc3)oc2c1` was tested, and the “activity, negative = inhibition” value was inactive: 10.9%. `O=[N+]([O-])c1ccccc1N/N=C1\CC2CC=CC12` (stereo not drawn) was tested, and the Potency was inconclusive: 28.2 µM [inhibitor, partial curve]. With `Cc1ccc(C(=O)NCC(c2cccs2)S(=O)(=O)c2ccccc2)cc1C` (stereo not drawn) the “activity, negative = inhibition” value was inactive: -0.496%. With `CN(C)c1ccc(/C=C/C(=O)c2ccccc2)cc1[N+](=O)[O-]` the Potency was active: 10 µM. In the case of `COC(=O)c1nnn(CC(=O)Nc2c(C)cccc2C)c1N`, the “activity, negative = inhibition” value was inactive: 0.436%. For `COc1cc(CN(C(=O)Nc2cccc(Cl)c2)c2ccccn2)cc(OC)c1OC`, the “activity, negative = inhibition” value was inactive: 8.63%. `CC(O)(C#CCN1CCCCCC1)c1ccccc1` (stereo not drawn) was tested, and the “activity, negative = inhibition” value was inactive: -9.88%. For `COc1ccc(-c2c(C#N)c(N)n(N)c(=O)c2C#N)cc1Cl`, the Potency was inconclusive: 20 µM [inhibitor, single point]. For `COc1cc(O)oc1C=Nc1ccc(C(F)(F)F)cc1`, the Potency was inconclusive: 15.8 µM [inhibitor, partial curve]. With `CC(=O)c1ccc(NC(=O)CSc2nnc(-c3ccco3)c(-c3ccco3)n2)cc1` the Potency was active: 3.98 µM. For `CCOC(=O)c1c(NC(=O)CSc2nc(-c3ccc(OC)cc3)cc(C(F)(F)F)n2)sc(C)c1C`, the Potency was inconclusive: 28.2 µM [inhibitor, single point]. In the case of `CCOC(=O)c1ccc(NC(=O)C(=O)NCC2CCCO2)cc1` (stereo not drawn), the Potency was inconclusive: 20 µM [inhibitor, single point]. With `C=CCc1ccccc1OCc1nc2ccc(C)cc2[nH]1` the Potency was inconclusive: 14.1 µM [inhibitor, single point]. With `CN(C)c1ccc(C2C3CCCc4ccccc4C3=NN2C)cc1` (stereo not drawn) the Potency was inconclusive: 14.1 µM [inhibitor, partial curve]. With `CCOc1cc(CNCCO)cc(Br)c1OCc1ccc(Cl)cc1` the “activity, negative = inhibition” value was inactive: -10.2%. `Cc1ccc(Nc2ncnc3sc(C)c(C)c23)cc1C` was tested, and the Potency was inconclusive: 2.51 µM [inhibitor, full curve]. With `CCN(CC)S(=O)(=O)c1cccc2cccnc12` the “activity, negative = inhibition” value was inactive: -6.42%. For `C/C(=N\NC(=O)c1c(Cl)cnn1C)c1ccc(NC(=O)c2ccncc2)cc1`, the Potency was inconclusive: 7.94 µM [inhibitor, partial curve]. `CC(=O)Nc1nnc(SCC(=O)c2ccc3c(c2)Cc2ccccc2-3)s1` was tested, and the Potency was inconclusive: 5.01 µM [inhibitor, partial curve, poor fit]. `CC(=O)Nc1ccc(NC(=O)c2c(C)nn(-c3ccccc3)c2Cl)cc1C` was tested, and the Potency was inconclusive: 15.8 µM [inhibitor, single point]. In the case of `COc1ccc(NC(=O)CC2COc3ccccc3O2)c(OC)c1` (stereo not drawn), the Potency was inconclusive: 35.5 µM [inhibitor, single point]. `CCOC(=O)Cc1c(C)nc2cc(-c3ccc(C(C)(C)C)cc3)nn2c1C` was tested, and the Potency was inconclusive: 20 µM [inhibitor, partial curve]. In the case of `COc1cccc(OCc2nc(-c3cccc([N+](=O)[O-])c3)no2)c1`, the Potency was inconclusive: 0.316 µM [inhibitor, full curve]. `COCc1cc(C)nc2sc(C(=O)Nc3ccc(C(C)=O)cc3)c(N)c12` was tested, and the Potency was inconclusive: 2.82 µM [inhibitor, full curve]. In the case of `COc1ccc(OCC(=O)Nc2cccc(C(=O)OCc3cc(=O)n4nc(C)sc4n3)c2)cc1`, the Potency was inconclusive: 2.24 µM [inhibitor, partial curve]. With `COc1cccc(NC(=O)c2sc3nc(C)c(C(=O)Nc4ccc(C)cc4C)c(-c4ccco4)c3c2N)c1` the Potency was inconclusive: 1.41 µM [inhibitor, full curve]. In the case of `CC(=O)c1ccc(NC(=O)COc2ccc3c(c2)OCO3)cc1`, the Potency was inconclusive: 14.1 µM [inhibitor, partial curve]. `CCOC(=O)c1cc(-c2ccccc2)sc1NC(=O)CCN1C(=O)c2ccccc2C1=O` was tested, and the “activity, negative = inhibition” value was inactive: -4.9%. For `CC(=O)Oc1ccc(-c2cccc(C(=O)O)c2)cc1`, the “activity, negative = inhibition” value was inactive: -5.07%. In the case of `Cc1nc2c3ccccc3nc(NNC(=O)CCC(=O)N3CCN(c4cc(Cl)ccc4C)CC3)n2n1`, the Potency was inconclusive: 25.1 µM [inhibitor, single point]. For `CCOC(=O)C/C(C)=N\Nc1nc(-c2ccccc2)cs1`, the Potency was active: 14.1 µM. `CCc1ccccc1NC(=O)c1ccc(Cn2nc(N3CCN(c4ccccc4)CC3)ccc2=O)o1` was tested, and the Potency was inconclusive: 17.8 µM [inhibitor, partial curve]. With `COC(=O)C1=C(O)/C(=C\c2sccc2C)N=C1C` the Potency was inconclusive: 39.8 µM [inhibitor, single point]. For `Fc1ccccc1NC(=S)Nc1ccc(Br)cc1`, the Potency was inconclusive: 12.6 µM [activator, partial curve]. With `Nc1nc(SCC(=O)c2ccc(Br)s2)n[nH]1` the Potency was inconclusive: 12.6 µM [inhibitor, partial curve, poor fit]. In the case of `Cc1ccc2oc(=O)c3cnn(CC(=O)N4CCN(c5ccccc5F)CC4)c3c2c1`, the Potency was inconclusive: 8.91 µM [inhibitor, partial curve, poor fit]. For `O=C(Nc1nc(-c2ccccc2)cs1)c1ccc(N2CCOCC2)c([N+](=O)[O-])c1`, the Potency was active: 8.91 µM. `CCc1c(C(C)=O)oc2ccc3c(C)cc(=O)oc3c12` was tested, and the Potency was inconclusive: 2.51 µM [inhibitor, single point]. `c1ccc(CN2CCN(c3nc(NCc4ccco4)c4ccccc4n3)CC2)cc1` was tested, and the “activity, negative = inhibition” value was inactive: -15%. In the case of `CCOC(=O)c1cc2c(=O)n3ccccc3nc2n(Cc2ccco2)c1=NC(=O)c1cccc(C)c1`, the “activity, negative = inhibition” value was inactive: -12.4%. `CCCn1c2ccccc2c2cnn(CC(=O)N(CC)c3cc(C)ccc3C)c(=O)c21` was tested, and the Potency was inconclusive: 39.8 µM [inhibitor, single point]. For `COc1ccc(-n2c(SCC(=O)NCc3ccco3)nc3c([nH]c4ccccc43)c2=O)cc1`, the Potency was “inactive”. For `Cc1cccc(N2CCN(C(=O)c3cnn(-c4ccc(F)cc4F)c3C3CCN(C(=O)OC(C)(C)C)CC3)CC2)c1C`, the “activity, negative = inhibition” value was inactive: -14.9%. With `OC(CNCC1CCCO1)Cn1c2ccc(Cl)cc2c2cc(Cl)ccc21` (stereo not drawn) the Potency was inconclusive: 22.4 µM [activator, partial curve]. In the case of `C/C(N)=C(/C#N)C(=O)COC(=O)c1ccc(C#N)cc1`, the “activity, negative = inhibition” value was inactive: -12.4%. In the case of `Cc1ccc(S(=O)(=O)N2CCc3nc(COc4ccccc4)c4c(c3C2)CO[C@@H](C)C4)cc1`, the activity, negative = inhibition was inactive: -13% [at 11.5 µM]. In the case of `COc1ccc(CNC(=O)C(Cc2ccccc2)NS(=O)(=O)c2ccc3c(c2)CCN3C(C)=O)cc1` (stereo not drawn), the “activity, negative = inhibition” value was inactive: -9.72%. `Cn1ncc(Br)c1C(=O)N/N=C/c1ccc(OS(=O)(=O)c2ccccc2)cc1` was tested, and the Potency was inconclusive: 20 µM [inhibitor, partial curve, poor fit]. For `COc1ccc(N=NC2=C(O)CC(C)(C)CC2=O)c(OC)c1`, the Potency was inconclusive: 15.8 µM [inhibitor, partial curve]. For `COc1cc(NC(=O)CCc2c(C)nc3c(-c4ccc(F)cc4)c(C)nn3c2C)cc(OC)c1OC`, the Potency was inconclusive: 44.7 µM [inhibitor, single point]. For `CC(=O)N(C(C)=O)n1c(C)nc2sc3c(c2c1=O)CCCC3`, the Potency was inconclusive: 15.8 µM [inhibitor, partial curve]. For `Cc1ccc(NC2Nc3cc(C)nn3S2)c(C)c1` (stereo not drawn), the “activity, negative = inhibition” value was inactive: -1.5%. `Cc1nn(-c2ccccc2)c2sc(C(=O)Nc3cccc(Cl)c3)cc12` was tested, and the Potency was inconclusive: 15.8 µM [activator, partial curve]. In the case of `COC(=O)c1ccc2c(=O)n(CCCCCC(=O)N3CCN(c4cc(C)ccc4C)CC3)c(=O)[nH]c2c1`, the “activity, negative = inhibition” value was inactive: -17.7%. For `O=C(O)C(O)C(O)(Cc1ccc(O)cc1)C(=O)O` (stereo not drawn), the “activity, negative = inhibition” value was inactive: -3.01%. For `N=c1n(CC(=O)c2cccc([N+](=O)[O-])c2)c2ccccc2n1Cc1ccccc1`, the Potency was inconclusive: 11.2 µM [inhibitor, partial curve].
